The whole screen tested about 310,000 compounds, of which about 14,000 (4.5%) showed an effect of 50% or more. The effect is printed as a negative number. This is one part of the list.
Each compound was assayed against human ether-à-go-go-related gene (hERG) potassium channel (human, UniProt Q12809) (assay: primary screen, population patch clamp on CHO cells stably expressing hERG).
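Further: peak tail current of the secondary pulse compared with the same well before compound.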

Chain of human ether-à-go-go-related gene (hERG) potassium channel (Q12809 whole entry, looked up): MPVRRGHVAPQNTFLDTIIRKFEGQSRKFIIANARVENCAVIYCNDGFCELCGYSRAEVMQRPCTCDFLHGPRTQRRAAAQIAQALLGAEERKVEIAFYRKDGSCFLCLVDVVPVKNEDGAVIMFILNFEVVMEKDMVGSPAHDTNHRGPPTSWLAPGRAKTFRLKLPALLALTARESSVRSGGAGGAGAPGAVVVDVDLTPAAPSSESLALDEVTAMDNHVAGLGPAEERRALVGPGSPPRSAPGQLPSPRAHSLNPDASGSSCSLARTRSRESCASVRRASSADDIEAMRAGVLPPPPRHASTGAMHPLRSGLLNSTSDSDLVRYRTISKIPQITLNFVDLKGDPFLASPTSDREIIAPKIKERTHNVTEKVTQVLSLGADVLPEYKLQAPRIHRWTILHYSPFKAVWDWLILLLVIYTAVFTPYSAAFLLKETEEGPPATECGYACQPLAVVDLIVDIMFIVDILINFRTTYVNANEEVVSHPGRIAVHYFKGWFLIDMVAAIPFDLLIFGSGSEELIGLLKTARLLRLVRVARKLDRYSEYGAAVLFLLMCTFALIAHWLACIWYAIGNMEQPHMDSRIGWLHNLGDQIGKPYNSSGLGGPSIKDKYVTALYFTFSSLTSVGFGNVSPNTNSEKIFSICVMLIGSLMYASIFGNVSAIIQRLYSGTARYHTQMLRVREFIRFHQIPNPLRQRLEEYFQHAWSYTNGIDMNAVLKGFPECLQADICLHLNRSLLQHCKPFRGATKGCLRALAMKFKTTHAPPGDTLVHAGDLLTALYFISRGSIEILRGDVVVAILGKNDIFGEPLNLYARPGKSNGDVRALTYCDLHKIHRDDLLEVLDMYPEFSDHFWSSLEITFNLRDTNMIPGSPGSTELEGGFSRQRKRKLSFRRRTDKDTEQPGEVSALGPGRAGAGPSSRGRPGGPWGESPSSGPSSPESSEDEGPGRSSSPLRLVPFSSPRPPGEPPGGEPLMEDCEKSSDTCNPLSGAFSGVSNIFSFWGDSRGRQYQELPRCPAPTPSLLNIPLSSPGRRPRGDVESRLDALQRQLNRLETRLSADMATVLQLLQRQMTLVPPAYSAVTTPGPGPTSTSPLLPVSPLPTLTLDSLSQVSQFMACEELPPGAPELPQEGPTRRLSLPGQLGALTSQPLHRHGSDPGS

Row | SMILES | hERG current change (%, negative = inhibition) at 10uM [%]
1 | CC1Cn2c(nnc2C23CC4CC(CC(C4)C2)C3)S1 (stereo not drawn) | -4.2
2 | O=C1CC2(CCCC2)Oc2ccc(Cl)cc21 | 8.19
3 | NC(=O)c1cc(Br)cc2c3c([nH]c12)CCCC3 | 14
4 | c1cc2c(cc1C1=Nn3c(nnc3C3CCCCC3)SC1)OCO2 | -0.78
5 | COc1ccc(CC(C)N2CCN(c3cccc(C(F)(F)F)c3)CC2)cc1OC (stereo not drawn) | -65.9
6 | CC(C)=CCN1CCN(Cc2cccc3c2OCO3)CC1CCO (stereo not drawn) | -12.6
7 | OC(CN1CCCCC1)CN1CCCCC1 | 16
8 | CCCN1CCN(C(=O)Nc2ccc(C(=O)OCC)cc2)CC1 | -2.52
9 | CC(C)(C)n1nnnc1C(c1cccs1)N(Cc1ccccc1)Cc1ccco1 (stereo not drawn) | 4.66
10 | O=S(=O)(c1ccc(NC(=S)NCc2ccncc2)cc1)N1CCCCC1 | -2.67
11 | CC(C)=CC(=O)Nc1nnc(-c2ccc(F)cc2)s1 | -8.2
12 | CCN(Cc1ccccc1)S(=O)(=O)c1ccc(C(=O)N(CCCN(C)C)c2nc3cc(C)cc(C)c3s2)cc1.Cl | -4.15
13 | Cc1ccc(Nc2ncc3c(n2)CC(c2ccco2)CC3=O)c(C)c1 (stereo not drawn) | -31.2
14 | CC12CN3CCN(CC(C3)/C1=N/NC(N)=O)C2 | 12.1
15 | NC(=O)c1ccccc1Nc1nc(NCCO)nc(N2CCCC2)n1 | 14.7
16 | COC(=O)c1ccc(C(=O)OC)c(NC(=O)CCS(=O)(=O)Cc2ccccc2)c1 | -2.41
17 | O=C1C2C(C(=O)N1CC1CCCO1)C1C=CC2C12CC2 (stereo not drawn) | -0.683
18 | CCc1ccc2oc(C(=O)Nc3ccc(S(N)(=O)=O)cc3)c(C)c2c1 | 29.4
19 | C=CCNC(=S)NNC(=O)c1cc(O)ccc1O | 13.6
20 | O=C(CC12CC3CC(CC(C3)C1)C2)Nc1c(F)cccc1F | 14.5
21 | CCCc1cc(=O)[nH]c(SCC(=O)NC)n1 | -6.09
22 | Cl.NCCN1C(=O)S/C(=C\c2ccc3c(c2)OCO3)C1=O | -5.03
23 | Cc1cccc(NC(=O)CC2SC(=NC3CCCCC3)NC2=O)c1 (stereo not drawn) | 2.19

Row | SMILES | hERG current change (%, negative = inhibition) at 10uM [%]
24 | Cl.OC(COCc1ccccc1)CN1CCCC1 (stereo not drawn) | -6.03
25 | CCc1nnc(NC(=O)CSc2nnc(-c3cccnc3)n2CC)s1 | 10.2
26 | CCOC(=O)N1CCN(S(=O)(=O)c2cccc3nonc23)CC1 | -10.8
27 | Cc1ccc(S(=O)(=O)N2CCN(C(=O)CSc3nnnn3C)CC2)c(C)c1 | 23.6
28 | COc1cccc(-c2nn(-c3ccc(C)cc3)cc2C(=O)N2CCN(C3CCS(=O)(=O)C3)CC2)c1 (stereo not drawn) | -57
29 | CC(CNC(=O)COc1ccc2c(c1)OCO2)c1ccccc1 (stereo not drawn) | -17.6
30 | CC1Oc2ccccc2N(Cc2cccnc2)C1=O (stereo not drawn) | 2.12
31 | CC(=O)c1ccccc1OCc1ccc(C(=O)c2ccccc2)cc1 | -51.7
32 | CCOC(=O)c1c(C)[nH]c(C(=O)COC(=O)CNC(=O)c2ccc(Cl)cc2)c1C | 17.6
33 | O=C(NC1CC1)c1sc2cc(F)ccc2c1Cl | -5.28
34 | OCc1c(OCc2cccc(F)c2)ccc2ccccc12 | 10.7
35 | COc1cc(/C=C/C(=O)Nc2nnc(CC(C)(C)C)s2)cc(OC)c1OC | 16.9
36 | O=C1c2ccccc2C(=O)N1CCCC(=O)N1CCc2ccccc21 | 2.76
37 | CCO[C@H]1OC(C(=O)Nc2ccccc2)=C[C@@H](C2CC2)[C@@H]1CCCO | 1.16
38 | O=S(=O)(NC1CC1)c1ccc(F)c(F)c1 | 7.21
39 | CC1(C)CC(=O)C(/C=N/n2c(C(F)(F)F)nc3ccccc3c2=O)=C(O)C1 | -7
40 | CCN(CC)CCCN(Cc1cc2cc3c(cc2[nH]c1=O)OCO3)C(=S)Nc1ccccc1 | -45.9
41 | COc1ccc(S(=O)(=O)N2CCC(C)CC2)cc1N(C)S(=O)(=O)c1ccccc1 | -2.12
42 | CN(C)S(=O)(=O)N1CCC(n2nccc2NC(=O)CCCc2ccccc2)CC1 | 5.1
43 | Cc1cc(OC(=O)CCCNC(=O)OC(C)(C)C)c2c3c(c(=O)oc2c1)CCC3 | -9.18
44 | COC(=O)c1c(C)[nH]c(C(=O)CC#N)c1C | 13.7
45 | COC(=O)COc1ccc(/C=C2/SC(=O)N(CC(=O)N3CCCC3)C2=O)cc1Br | 9.14
